Laboratory results: paper PMC13657631, “Product-stabilized filamentation by human glutamine synthetase allosterically tunes metabolic activity” (eLife, 2026)

B1: human glutamine synthetase R298A (enzyme)
chain: not shown
notes: human glutamine synthetase with R298A; also called loop variant R298A; source: E. coli, purified (His6-SUMO tagged GLUL variant, SEC); copies: 10
B2: N-terminally His6-tagged human glutamine synthetase (enzyme)
chain: not shown
notes: human glutamine synthetase; expression vector ordered from ATUM; also called His6-tagged GS; 6x HIS-conjugated human glutamine synthetase; source: E. coli BL21(DE3), purified (HisTrap, Superose 6 SEC); not shown: His6, N-terminal, kept

Assays:
[1] = target: the molecule itself; assay: cryo-EM structure; turnover conditions (5 mM ATP, 25 mM ammonium chloride, 50 mM glutamate), decamer particles; monomers to decamer
[2] = target: the molecule itself; assay: negative-stain electron microscopy; GS ~0.01-0.05 mg/mL in base buffer, 0.7% uranyl formate, 2D classification and averaging

| Protein | stoichiometry N [1] | stoichiometry N [2] |
| --- | --- | --- |
| B1 | 10 |  |
| B2 |  | 10 |
